Hit rate of the full screen: of about 420,000 compounds, about 64,000 (15%) were called active. Inconclusive results, whose numbers are uncertain, are shown with a selection of clear calls. The call rests on the fitted dose curve; in most records, active means well fitted inhibition curve with a large enough effect; inconclusive means small, poorly fitted or top-dose-only effect; inactive means flat fitted curve, though single readings scatter. Potencies of inconclusive entries are left out as doubtful fits.
experiment: qHTS for Inhibitors of human tyrosyl-DNA phosphodiesterase 1 (TDP1): qHTS in cells in absence of CPT; settings: DT40 Tdp1-/- hTDP1 cells, no CPT, ATP luminescence, 48 h; activity change, negative = growth inhibition: at 46.2 µM (top of the series) unless noted; further: nearly all actives have a fitted effect of over 55% in size
Outline: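 DT40 Tdp1-/-;hTDP1 cells, no CPT (DMSO vehicle only), 400 cells/well; compounds pin-transferred; ≥48 hr, 37 °C; CellTiter-Glo 30 min RT dark, luminescence read.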
On the % scale 0 is the no-effect control and ±100 the full control effect; potency means the concentration at half of the fitted maximal effect; tags describe the fitted curve by direction and shape.

SMILES | Potency | activity change, negative = growth inhibition
CCCCOC(=O)c1ccc(NC(=O)c2ccc(F)cc2F)cc1 | inconclusive [inhibitor, partial curve, poor fit] | 
CN(C(=O)CSc1nnc(-c2ccco2)n1Cc1ccccc1)C1CCS(=O)(=O)C1 (stereo unspecified) |  | inactive: 2.13%
Cc1ccc(C)c(NC(=O)CN(C)C(=O)c2cc(C3CC3)nn2-c2ccccc2)c1 | inconclusive [inhibitor, single point] | 
CCc1cccc(NC(=O)CSc2nc3ccsc3c(=O)n2CC)c1 | inconclusive [inhibitor, single point] | 
CCN1CCN(Cc2ccc(NC(=O)Nc3ccc(OC)cc3)cc2)CC1 |  | inactive: 2.2%
CCOC(=O)Cc1csc(NC(=O)CSC2=NCCS2)n1 |  | inactive: -29.8%
c1ccc(-c2ccc(-c3csc4ncnc(Sc5nnnn5-c5ccccc5)c34)cc2)cc1 | active: 6.31 µM | 
CSc1ccccc1OCc1cc(C(=O)N(C)Cc2ccc(C)o2)no1 | inconclusive [inhibitor, single point] | 
COc1cc(C2NCC(c3ccc(Cl)cc3Cl)c3c2[nH]c2ccccc32)cc(OC)c1OC (stereo unspecified) | active: 18.4 µM | 
COC(=O)c1c(NC(=S)Nc2ccc(F)cc2[N+](=O)[O-])sc2c1CCCCC2 |  | inactive: 10.6%
Cc1ccc(Cn2c(Sc3nnc(C)s3)nc3c2c(=O)[nH]c(=O)n3C)cc1 | active: 23.1 µM | 
Oc1ccc2c(c1)C1CCCC1(N1CCOCC1)O2 (stereo unspecified) | inconclusive [inhibitor, single point] | 
COc1ccc(-n2c(C)cc(C(=O)CSc3nnc(-c4cccs4)o3)c2C)cc1 | active: 16.4 µM | 
CCC(CC)C(C(=O)NCc1ccccc1)N1CCN(c2cccc(C)c2C)CC1 (stereo unspecified) | active: 5.8 µM | 
C[C@H](CO)N1C[C@H](C)[C@@H](CN(C)C(=O)Nc2ccc3c(c2)OCO3)Oc2ccc(NC(=O)C3CCCCC3)cc2C1=O |  | inactive: -10.6%
Cc1ccc(CN(Cc2cccn2-c2nnc(N3CCCC3=O)s2)C(=O)Nc2ccccc2C(F)(F)F)cc1 | inconclusive [inhibitor, single point] | 
CCn1c2ccccc2c2cc(N)ccc21 | inconclusive [inhibitor, single point] | 
CC(C)c1ccc(NC(=O)C2CCCN2S(=O)(=O)c2ccccc2F)cc1 (stereo unspecified) | inconclusive [inhibitor, partial curve] | 
COc1ccc(NC(=O)c2ccccc2-c2ccccc2)c(C)c1 | inconclusive [inhibitor, single point] | 
O=C(Cn1ccc(=O)[nH]c1=O)NCCO |  | inactive: -12.6%
Cc1nnc(Nc2ccc(S(N)(=O)=O)cc2)c2ccccc12 |  | inactive: 6.6%
Cc1ccc(CNC(=O)Cn2c(=O)n(Cc3ccccc3)c(=O)c3sc4ccccc4c32)cc1 | inconclusive [inhibitor, full curve] | 
Cc1ccc(NC(=O)c2cnn(-c3ccccc3)c2C)cc1C | inconclusive [inhibitor, single point] | 
COc1cccc(CC2(CO)CCN(CC3=CC[C@H]4C[C@@H]3C4(C)C)CC2)c1 | inconclusive [inhibitor, single point] | 

SMILES | Potency | activity change, negative = growth inhibition
O=C(Cn1c(S(=O)(=O)Cc2ccccc2)nc2ccccc21)N1CCCCC1 |  | inactive: -16%
O=C(CSc1cccc[n+]1[O-])c1ccc(Cl)cc1 | active: 5.17 µM | 
COc1ccc(/C=C2\CCc3ccccc3C2=O)cc1OC | inconclusive [inhibitor, partial curve, poor fit] | 
CCc1cccc(C)c1NC(=S)N(CCCN1CCN(C)CC1)Cc1cccs1 | inconclusive [inhibitor, single point] | 
CS(=O)(=O)N1CCN(C(=O)c2cc(-c3ccccc3)nc3ccccc23)CC1 |  | inactive: -20.6%
Cc1cccnc1C(c1ccc(F)cc1)N(C)C(=O)C1CCN(CCCOc2ccc(F)cc2)CC1 (stereo unspecified) | inconclusive [inhibitor, single point] | 
CCOc1ccccc1NC(=O)C(CC(C)C)NC(=O)C1CCCCC1 (stereo unspecified) | inconclusive [inhibitor, partial curve, poor fit] | 
COc1ccc(NC(=O)CN2C(=O)C3(SCC(=O)N3c3ccccc3)c3ccccc32)cc1Cl (stereo unspecified) | inconclusive [inhibitor, single point] | 
CCc1ccccc1NC(=O)CC(c1ccc(OC)cc1)n1cccc1 (stereo unspecified) | inconclusive [inhibitor, partial curve, poor fit] | 
c1ccc(-c2cc(N3CCCCCC3)n[nH]2)cc1 | inconclusive [inhibitor, partial curve] | 
O=C(c1ccc(-c2ccc(Cl)cc2)o1)N1CCN(S(=O)(=O)c2cccs2)CC1 | inconclusive [inhibitor, single point] | 
COc1cccc2sc(=NC(=O)CS(=O)(=O)c3ccc(Cl)cc3)n(C)c12 | active: 2.31 µM | 
O=c1cc(-c2ccc(F)cc2)nc(SCc2nc(-c3cccc(C(F)(F)F)c3)no2)[nH]1 |  | inactive: -11.2%
O=C(CN1CCN(c2ccccc2)CC1)c1ccc2cc[nH]c2c1 | inconclusive [inhibitor, single point] | 
CCC(CC)C(=O)Nc1c2cnn(-c3ccccc3)c2nc(=O)n1-c1ccccc1 | inconclusive [inhibitor, single point] | 
CCOC(=O)C1CCN(Cc2nc3ccc([N+](=O)[O-])cc3c(=O)n2-c2ccc(OC)cc2OC)CC1 | inconclusive [inhibitor, partial curve] | 
CCCCc1ccc(NS(=O)(=O)c2cccc(C(=O)N3CCCN(C)CC3)c2)cc1 | inconclusive [inhibitor, single point] | 
COc1ccc(NC(=O)Nc2nnc(-c3ccccc3SCc3ccccc3)s2)cc1 | active: 6.51 µM | 
Cc1cc(Cl)c2oc(C(=O)NCCC3CCCCO3)c(C)c2c1 (stereo unspecified) | inconclusive [inhibitor, partial curve] | 
CC1CC1C(=O)Nc1nc2ccc(S(C)(=O)=O)cc2s1 (stereo unspecified) | inconclusive [inhibitor, single point] | 
COc1ccc(CNC(=O)c2cccc(N3CCCS3(=O)=O)c2)cc1OC | active: 7.31 µM | 
CCN(CC)S(=O)(=O)c1ccc(C(=O)NCc2ccc3[nH]c4c(c3c2)CCCC4)cc1 | inconclusive [inhibitor, single point] | 
CCN1CCN(CCC(=O)Nc2ccccc2)CC1 | inconclusive [inhibitor, single point] | 
CC(C)(C)NC(=S)N/N=C/c1c(Cl)cccc1Cl | inconclusive [inhibitor, partial curve] | 

SMILES | Potency | activity change, negative = growth inhibition
COc1ccc(C(=O)c2ccc(OC)cc2O)c(O)c1 | inconclusive [inhibitor, partial curve, poor fit] | 
COc1ccc(N2C(=O)Cc3ccccc3C2=O)cc1 | active: 13 µM | 
O=C(CN1CCC(NC(=O)c2cccc(F)c2)CC1)Nc1ccc(Br)cc1 | inconclusive [inhibitor, single point] | 
COc1cccc(N2C(C(C)=O)=NN(c3ccccc3)C2c2ccc(N3CCOCC3)cc2)c1 (stereo unspecified) | active: 16.4 µM | 
CCn1c(SCC(=O)N/N=C/C=C\c2ccco2)nc2ccccc21 | inconclusive [inhibitor, single point] | 
CCCCCC#CCN1CCN(C23CC4CC(CC(C4)C2)C3)CC1 | inconclusive [inhibitor, single point] | 
Cc1cccc(OCCNC(=O)CCc2ccccc2)c1 |  | inactive: -9.37%
Clc1cccc(-c2nc3nc4ccccc4nc3n2Cc2ccccc2)c1 | inconclusive [inhibitor, single point] | 
CN1CCN(Cc2cccc(Oc3ccccc3)c2)CC1 | inconclusive [inhibitor, single point] | 
CC(C)c1ccc(NC(=O)c2ccc(Cn3nc(N4CCN(c5ccccc5)CC4)ccc3=O)o2)cc1 | inconclusive [inhibitor, partial curve] | 
Cc1ccc2c(c1)C1CN(C)CCC1N2S(=O)(=O)c1cc(C(F)(F)F)ccc1Cl (stereo unspecified) | inconclusive [inhibitor, partial curve] | 
C=CCSC1=C(C#N)C(c2ccccc2OCC)C(C#N)C(=O)N1 (stereo unspecified) | inconclusive [inhibitor, single point] | 
Cc1cccn2c(=O)c3cc(C(=O)NCc4ccco4)c(=N)n(CCc4ccccc4)c3nc12 | active: 14.6 µM | 
S=C1NC2=C(CCCC2=C2SCCS2)C(c2ccccc2)N1 (stereo unspecified) | active: 16.4 µM | 
O=S(=O)(c1ccc(-c2ccon2)s1)N1CCN(c2ccccn2)CC1 |  | inactive: -25.5%
COc1ccc(CC(=O)N(C)Cc2ccc(C(C)(C)C)cc2)cc1S(=O)(=O)N1CCOCC1 | active: 29.1 µM | 
COc1ccccc1/C=C(/C(=O)OCC(=O)Nc1cc(C)ccc1C)c1ccccc1 | active: 20.6 µM | 
CCN(CCO)c1ncnc2onc(-c3ccc(F)cc3)c12 |  | inactive: -21.7%
Cc1ccc(N2CCN(S(=O)(=O)c3ccc4c(c3)NC(=O)C(C)C(=O)N4)CC2C)cc1 (stereo unspecified) | inconclusive [inhibitor, single point] | 
COc1ccnc(Oc2ccc(C)cc2C)c1C#N | inconclusive [inhibitor, partial curve] | 
CC(C)c1ccc(C2CC(c3ccc(Br)cc3)=NN2C(N)=S)cc1 (stereo unspecified) | active: 9.2 µM | 
Cc1cnc(C(=O)OCC(=O)N2C(C)CCCC2C)cn1 (stereo unspecified) |  | inactive: -7.79%
CC(=O)Nc1cccc(NC(=O)C(=O)c2cn(CC(=O)N3CCCCC3)c3ccccc23)c1 | inconclusive [inhibitor, single point] | 
